# Among all 370,000 compounds or so, about 150 (0.041%) were called active. The shares of active, inactive and inconclusive entries below differ from those in the screen. The call rests on the fitted dose curve; in most records, active means well fitted inhibition curve with a large enough effect; inconclusive means small, poorly fitted or top-dose-only effect; inactive means flat fitted curve, though single readings scatter. No potency is given beside an inconclusive call; the fits are too rough.
# Biological target: Beta-lactamase (Escherichia coli (strain K12)) (UniProt P00811)
# Assay: qHTS Inhibitors of AmpC Beta-Lactamase (assay with detergent); further: nearly all actives have a fitted effect of over 25% in size;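 on activity change, negative = inhibition: 0% = no-compound wells and -100% = no-enzyme wells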
# Conditions: AmpC hydrolysis of nitrocefin, absorbance 480 nm, 0.01% Triton; activity change, negative = inhibition: at 114 µM (top of the series)
# Method in brief: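 20 mM phosphate pH 7.0 + 0.01% (detergent screen) or 0.0001% Triton X-100; 5.3 nM AmpC reagent; cpd preinc 15 min RT; nitrocefin (800 uM stock) to start; A480 q20 s × 4 min; Activity was normalised to no-enzyme and no-compound control wells.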
# Potency means the concentration at half of the fitted maximal effect; tags describe the fitted curve by direction and shape.
# Chain of UniProt P00811 (P00811 whole entry, looked up): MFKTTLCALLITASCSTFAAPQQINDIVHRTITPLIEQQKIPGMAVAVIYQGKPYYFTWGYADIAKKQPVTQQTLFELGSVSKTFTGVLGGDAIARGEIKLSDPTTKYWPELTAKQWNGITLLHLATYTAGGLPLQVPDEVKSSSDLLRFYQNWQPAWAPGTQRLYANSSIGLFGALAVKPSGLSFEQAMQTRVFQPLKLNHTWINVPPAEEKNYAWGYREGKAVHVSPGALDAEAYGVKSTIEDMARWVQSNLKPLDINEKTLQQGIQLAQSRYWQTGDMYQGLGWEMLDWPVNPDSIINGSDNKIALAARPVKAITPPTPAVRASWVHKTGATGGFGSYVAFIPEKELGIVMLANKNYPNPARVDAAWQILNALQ
Compound,Potency,"activity change, negative = inhibition"
COCC(=O)N1CCCN(c2nc3c(C)cccc3cc2C#N)CC1,"inconclusive [inhibitor, full curve]",
NNC(=O)c1cccc(COc2cccc(Br)c2)c1,,inactive: -11.4%
CC(Sc1ncc(C(F)(F)F)cc1Cl)C(=O)NCC1CCCO1 (stereo not drawn),"inconclusive [inhibitor, full curve, poor fit]",
O=S(=O)(c1ccc2nc(-c3ccccc3)[nH]c2c1)N1CCN(c2ccc(Cl)cc2)CC1,"inconclusive [inhibitor, full curve, poor fit]",
CN1CCN(S(=O)(=O)c2cccc(C(=O)N(Cc3nnc(-c4ccccc4Cl)o3)C3CC3)c2)CC1,,inactive: 4.71%
O=C(Nc1ccc(N2CCN(C(=O)c3ccco3)CC2)cc1)c1ccc(Br)cc1,,inactive: 3.45%
COc1ccc(N2C(=O)C(F)(F)C2c2ccc(C)cc2)cc1OC (stereo not drawn),"inconclusive [inhibitor, full curve, poor fit]",
CCC1CCCCN1CCCNC(=O)c1ccc(CS(=O)(=O)Cc2ccccc2F)o1 (stereo not drawn),"inconclusive [inhibitor, full curve]",
O=C(COC(=O)c1ccco1)Nc1ccccc1,"inconclusive [inhibitor, partial curve, poor fit]",
CC(=O)NC(CC(=O)Nc1cc(Cl)ccc1-n1cncn1)c1ccccc1 (stereo not drawn),"inconclusive [inhibitor, full curve, poor fit]",
CCOC(=O)N1CCN(C(=O)c2cc3c(ccc4ccccc43)oc2=O)CC1,"inconclusive [inhibitor, full curve, poor fit]",
O=C(CSc1nc2c([nH]c3ccccc32)c(=O)n1-c1cccc(Cl)c1)N1CCCC1,,inactive: 0.177%
Cc1csc(=O)n1CCC(=O)OCC(=O)Nc1ccc(C(N)=O)cc1,"inconclusive [inhibitor, full curve, poor fit]",
Cc1ccc(CS/C(Nc2ccccc2C)=C(\C#N)C(=O)NCc2ccco2)c(C)c1,"inconclusive [inhibitor, single point]",
COc1ccc(CCNC(=O)c2ccc(=O)[nH]c2)cc1,,inactive: -4.05%
COCc1nnc(NC(=O)c2cccc(NC(=O)c3ccccc3)c2)s1,,inactive: -2%
CCC(C)NC(=O)c1ccc2c(c1)sc1nc(-c3ccc(OC)cc3)cn12 (stereo not drawn),,inactive: 19.7%
CS(=O)(=O)N1CCN(c2ccccc2NC(=O)c2cc3ccccc3o2)CC1,"inconclusive [inhibitor, partial curve]",
COCCN1CCN(C(=O)c2ccc3nc(Cc4ccc(OC)c(OC)c4)oc3c2)CC1,,inactive: 3.52%
CCOc1ccc2nc(NS(=O)(=O)c3ccc(NC(C)=O)cc3)sc2c1,"inconclusive [inhibitor, partial curve]",
O=C(COC(=O)Cc1ccccc1)Nc1ccc(F)cc1,"inconclusive [inhibitor, partial curve, poor fit]",
Cc1cc(C)n(CCC(=O)Nc2ccc(Cl)cc2)n1,,inactive: 6.4%

Compound,Potency,"activity change, negative = inhibition"
Cn1c(NC(=O)c2ccccc2)c(-c2ccccn2)c(=O)c2ccccc21,"inconclusive [inhibitor, full curve, poor fit]",
CCOc1ccc(N2CC(NC(=O)c3ccc4c(c3)OCO4)CC2=O)cc1 (stereo not drawn),,inactive: -0.978%
Cc1ccc(-n2nc3c(c2NC(=O)c2ccco2)CS(=O)(=O)C3)cc1C,,inactive: 3.28%
C[C@@H]1O[C@@H](O[C@H]2[C@H](Oc3cc(O)c4c(c3)OC(c3ccc(O)cc3)CC4=O)O[C@H](CO)[C@@H](O)[C@@H]2O)[C@H](O)[C@H](O)[C@H]1O (stereo partly drawn),"inconclusive [inhibitor, full curve]",
CCOC(=O)CNC(=O)c1cc2c(=O)oc3ccccc3c2s1,"inconclusive [inhibitor, full curve, poor fit]",
O=C(CNCc1ccccc1)NC1C2CC3CC(C2)CC1C3 (stereo not drawn),"inconclusive [inhibitor, full curve]",
CCOC(=O)c1ccc(NC(=O)C2=C(C)Nc3nc(CCCO)nn3C2c2cccc(C)c2)cc1 (stereo not drawn),"inconclusive [inhibitor, full curve]",
CCN(Cc1ccncc1)Cc1cn[nH]c1-c1ccc(OC)cc1F,,inactive: -5.69%
CCOC(=O)C1CCN(C(=O)CN(c2ccc3c(c2)OCCO3)S(C)(=O)=O)CC1,"inconclusive [inhibitor, partial curve, poor fit]",
CCCc1nnc(-c2cc(OC)c(OC)c(OC)c2)o1,"inconclusive [inhibitor, partial curve]",
CC(C)OC(=O)c1ccc(NC(=O)C2C3CC4OC(=O)C2C4C3)cc1 (stereo not drawn),"inconclusive [inhibitor, single point]",
CCc1ccccc1NC(=S)N1CCN(c2ccccn2)CC1,"inconclusive [inhibitor, partial curve, poor fit]",
Cc1ccccc1Cn1nc(C)c(NC(=O)c2noc3c2CCc2ccccc2-3)c1C,"inconclusive [inhibitor, full curve, poor fit]",
O=C(Nc1ccccc1-c1ccccc1NC(=O)c1ccco1)c1ccco1,"inconclusive [inhibitor, partial curve, poor fit]",
CCOc1ccccc1N1CC(C(=O)Nc2nccs2)CC1=O (stereo not drawn),"inconclusive [inhibitor, full curve]",
O=C(CC1Sc2ncnn2C1=O)Nc1ccccc1 (stereo not drawn),"inconclusive [inhibitor, partial curve]",
O=S(=O)(c1cccc(-c2n[nH]c(=S)n2C2CCCC2)c1)N1CCOCC1,,inactive: 2.75%
C=CCn1c(SCC(=O)NC(=O)c2cccn2C)nc2ccccc2c1=O,,inactive: 1.15%
COc1cc(O)c(C(CC(=O)N2CCOCC2)c2cc(OC)c(OC)c(OC)c2)c(OC)c1 (stereo not drawn),,inactive: 1.64%
O=C1/C(=C\c2ccco2)SC(=S)N1Cc1ccccc1,"inconclusive [inhibitor, partial curve, poor fit]",
CCOC(=O)c1oc2ccc(S(=O)(=O)n3nc(-c4ccc(OC)cc4)cc3N)cc2c1C,"inconclusive [inhibitor, partial curve]",
